Measured values reported in the supplement of paper PMC12217912.
Some of the results follow. The full chains were built here from the parent and the listed change. Inactive controls read about 0.05.

B1: TEV protease; numbered along this chain (parent)
chain: MGESLFKGPRDYNPISSSICHLTNESDGHTTSLYGIGFGPFIITNKHLFRRNNGTLVVQSLHGVFKVKDTTTLQQHLVDGRDMIIIRMPKDFPPFPQKLKFREPQREERICLVTTNFQTKSMSSMVSDTSCTFPSGDGIFWKHWIQTKDGQCGSPLVSTRDGFIVGIHSASNFTNTNNYFTSVPKNFMELLTNQEAQQWVSGWRLNADSVLWGGHKVFMVKPEEPFQPVKEATQL

Variants of: B1
Assay: raw area under fraction-flipped curve 0-4 h after induction (AUC4h, not background-subtracted), DNA-recorder readout of cleavage of the substrate (dimensionless); higher = more cleavage of the substrate by the protease variant
Conditions: temperature: 34 °C; time window: 0-4 h after rhamnose induction
Experimental: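 In vivo DNA recorder in E. coli TOP10(DE3) ΔrhaA at 34 °C. Each TEVp single-site mutant (parent TEVp 0) is paired with a single-site variant of the 7-mer TEVs (canonical ENLYFQ|S). The substrate sits between flexible linkers in a Bxb1-sfGFP-TEVs-SsrA fusion, so cleavage stabilises Bxb1 and speeds flipping of a recombination array, read by NGS. The value is the raw area under the fraction-flipped curve over 0-4 h after rhamnose induction (AUC4h), with ≥20 reads per time point. It is not background-subtracted; inactive controls average about 0.047.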
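Note: Bxb1 expression induced with 0.2% (w/v) L-rhamnose at OD600 near 0.5, cultures sampled hourly, flipped fraction per protease–substrate barcode pair counted by paired-end Illumina sequencing.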

| Variant | area with substrate ENLYAQS | area with substrate ENLYDQS | area with substrate ENLYEQS | area with substrate ENLYGQS | area with substrate ENLYHQS | area with substrate ENLYIQS | area with substrate ENLYKQS | area with substrate ENLYMQS | area with substrate ENLYNQS | area with substrate ENLYPQS | area with substrate ENLYQQS | area with substrate ENLYRQS | area with substrate ENLYSQS | area with substrate ENLYVQS | area with substrate ENLYWQS | area with substrate ENLYCQS | area with substrate ENLYTQS | area with substrate ENLYYQS | area with substrate ENLYLQS |
| --- | --- | --- | --- | --- | --- | --- | --- | --- | --- | --- | --- | --- | --- | --- | --- | --- | --- | --- | --- |
| MGESLFKGPRDYNPISSSICHLTNESDGHTTSLYGIGFGPFIITNKHLFRRNNGTLVVQSLHGVFKVKDTTTLQQHLVDGRDMIIIRMPKDFPPFPQKLKFREPQREERICLVTTNFQTKSMSSMVSDTSCTFPSGDGIFWKHWIQTKDGQCGSPLVSTRDGFTVGIHSASNFTNTNNYFTSVPKNFMELLTNQEAQQWVSGWRLNADSVLWGGHKVFMVKPEEPFQPVKEATQL [I164T] | 0.0442 | 0.066 | 0.0633 | 0.0585 | 0.0587 | 0.0753 | 0.0512 | 0.0498 | 0.063 | 0.0689 | 0.0448 | 0.0456 | 0.0659 | 0.0969 | 0.0601 | – | – | – | – |
| MGESLFKGPRDYNPISSSICHLTNESDGHTTSLYGIGFGPFIITNKHLFRRNNGTLVVQSLHGVFKVKDTTTLQQHLVDGRDMIIIRMPKDFPPFPQKLKFREPQREERICLVTTNFQTKSMSSMVSDTSCTFPSGDGIFWKHWIQTKNGQCGSPLVSTRDGFIVGIHSASNFTNTNNYFTSVPKNFMELLTNQEAQQWVSGWRLNADSVLWGGHKVFMVKPEEPFQPVKEATQL [D149N] | 0.0688 | 0.0636 | 0.0605 | 0.0548 | 0.0751 | – | 0.0499 | 0.124 | 0.0543 | 0.0635 | – | 0.0656 | 0.064 | 0.12 | 0.075 | 0.0977 | 0.0616 | 0.0445 | – |
| MEESLFKGPRDYNPISSSICHLTNESDGHTTSLYGIGFGPFIITNKHLFRRNNGTLVVQSLHGVFKVKDTTTLQQHLVDGRDMIIIRMPKDFPPFPQKLKFREPQREERICLVTTNFQTKSMSSMVSDTSCTFPSGDGIFWKHWIQTKDGQCGSPLVSTRDGFIVGIHSASNFTNTNNYFTSVPKNFMELLTNQEAQQWVSGWRLNADSVLWGGHKVFMVKPEEPFQPVKEATQL [G2E] | 0.066 | – | 0.0553 | 0.0696 | 0.076 | 0.108 | 0.0739 | 0.0852 | 0.0716 | 0.081 | – | 0.044 | 0.0609 | 0.105 | 0.0618 | 0.0729 | – | – | – |
| MGESLFKGPRDYNPISSSICHLTNESDGHTTSLYGIGFGPFIITNKHLFRRNNGTLVVQSLHGVFKVKDTTTLEQHLVDGRDMIIIRMPKDFPPFPQKLKFREPQREERICLVTTNFQTKSMSSMVSDTSCTFPSGDGIFWKHWIQTKDGQCGSPLVSTRDGFIVGIHSASNFTNTNNYFTSVPKNFMELLTNQEAQQWVSGWRLNADSVLWGGHKVFMVKPEEPFQPVKEATQL [Q74E] | 0.0735 | 0.0744 | 0.0769 | – | 0.0695 | 0.13 | – | – | 0.0722 | 0.0614 | 0.0759 | 0.0654 | 0.0709 | – | 0.0822 | – | – | 0.0605 | 0.0917 |
| MGESLFKGPRDYNPISSSICHLTNESDGHTTSLYGIGFGPFIITNLHLFRRNNGTLVVQSLHGVFKVKDTTTLQQHLVDGRDMIIIRMPKDFPPFPQKLKFREPQREERICLVTTNFQTKSMSSMVSDTSCTFPSGDGIFWKHWIQTKDGQCGSPLVSTRDGFIVGIHSASNFTNTNNYFTSVPKNFMELLTNQEAQQWVSGWRLNADSVLWGGHKVFMVKPEEPFQPVKEATQL [K46L] | 0.09 | 0.0589 | 0.0664 | 0.0693 | 0.0653 | – | 0.0728 | 0.0628 | 0.0779 | 0.0653 | 0.0706 | 0.0591 | 0.0536 | 0.113 | – | 0.0869 | – | 0.0635 | – |
| MGESLFKGPRDYNPISSSICHLTNESDGHTTSLYGIGFGPFIITNHHLFRRNNGTLVVQSLHGVFKVKDTTTLQQHLVDGRDMIIIRMPKDFPPFPQKLKFREPQREERICLVTTNFQTKSMSSMVSDTSCTFPSGDGIFWKHWIQTKDGQCGSPLVSTRDGFIVGIHSASNFTNTNNYFTSVPKNFMELLTNQEAQQWVSGWRLNADSVLWGGHKVFMVKPEEPFQPVKEATQL [K46H] | 0.0596 | 0.0697 | 0.054 | 0.0522 | 0.0609 | 0.0529 | 0.0676 | 0.0556 | 0.0523 | – | 0.0311 | 0.0492 | 0.0685 | 0.0654 | 0.054 | 0.0295 | – | 0.0641 | 0.0459 |
| MGESLFKGPRDYNPISSSICHLTNESDGHTTSLYGIGFGPFIITNKHLFRRNNGTLVVQSLHGVFKVKDTTTLQQHLVDGRDMIIIRMPKDFPPFPQKLKFREPQREERICLVTTNFQTKSMSSMVSDTSCTFPSGDGIFWKHWIQTKDGQCGSPLVSTRDGFIVGIHSASNFTNTNNYFTSVPKNFMELLTNQEAQQWVSGWRLNADSVLWGGHKVFMVKPCEPFQPVKEATQL [E223C] | 0.0781 | – | 0.0685 | 0.0637 | 0.0663 | 0.11 | 0.0543 | 0.0839 | 0.0708 | 0.0673 | 0.0722 | 0.0661 | 0.0721 | 0.119 | 0.0566 | 0.0758 | 0.0833 | 0.0597 | 0.0724 |
| MGESLFKGPRDYNPISSSICHLTNESDGHTTSLYGIGFGPFIITNKILFRRNNGTLVVQSLHGVFKVKDTTTLQQHLVDGRDMIIIRMPKDFPPFPQKLKFREPQREERICLVTTNFQTKSMSSMVSDTSCTFPSGDGIFWKHWIQTKDGQCGSPLVSTRDGFIVGIHSASNFTNTNNYFTSVPKNFMELLTNQEAQQWVSGWRLNADSVLWGGHKVFMVKPEEPFQPVKEATQL [H47I] | 0.0496 | 0.0661 | 0.0566 | 0.069 | 0.0731 | 0.0692 | 0.0629 | – | – | 0.0514 | 0.0612 | 0.0713 | – | 0.0588 | 0.0529 | 0.0702 | – | 0.0622 | – |
